The results in this text go back to PMC4336329 (PLoS ONE, 2015).

Molecules are shown by their SMILES. Screen size: about 310,000 compounds; about 2,200 (0.71%) showed an effect of 50% or more. The effect is printed as a negative number. The list shows a part of the results.

Sequence of human ether-à-go-go-related gene (hERG) potassium channel (Q12809 whole entry, looked up): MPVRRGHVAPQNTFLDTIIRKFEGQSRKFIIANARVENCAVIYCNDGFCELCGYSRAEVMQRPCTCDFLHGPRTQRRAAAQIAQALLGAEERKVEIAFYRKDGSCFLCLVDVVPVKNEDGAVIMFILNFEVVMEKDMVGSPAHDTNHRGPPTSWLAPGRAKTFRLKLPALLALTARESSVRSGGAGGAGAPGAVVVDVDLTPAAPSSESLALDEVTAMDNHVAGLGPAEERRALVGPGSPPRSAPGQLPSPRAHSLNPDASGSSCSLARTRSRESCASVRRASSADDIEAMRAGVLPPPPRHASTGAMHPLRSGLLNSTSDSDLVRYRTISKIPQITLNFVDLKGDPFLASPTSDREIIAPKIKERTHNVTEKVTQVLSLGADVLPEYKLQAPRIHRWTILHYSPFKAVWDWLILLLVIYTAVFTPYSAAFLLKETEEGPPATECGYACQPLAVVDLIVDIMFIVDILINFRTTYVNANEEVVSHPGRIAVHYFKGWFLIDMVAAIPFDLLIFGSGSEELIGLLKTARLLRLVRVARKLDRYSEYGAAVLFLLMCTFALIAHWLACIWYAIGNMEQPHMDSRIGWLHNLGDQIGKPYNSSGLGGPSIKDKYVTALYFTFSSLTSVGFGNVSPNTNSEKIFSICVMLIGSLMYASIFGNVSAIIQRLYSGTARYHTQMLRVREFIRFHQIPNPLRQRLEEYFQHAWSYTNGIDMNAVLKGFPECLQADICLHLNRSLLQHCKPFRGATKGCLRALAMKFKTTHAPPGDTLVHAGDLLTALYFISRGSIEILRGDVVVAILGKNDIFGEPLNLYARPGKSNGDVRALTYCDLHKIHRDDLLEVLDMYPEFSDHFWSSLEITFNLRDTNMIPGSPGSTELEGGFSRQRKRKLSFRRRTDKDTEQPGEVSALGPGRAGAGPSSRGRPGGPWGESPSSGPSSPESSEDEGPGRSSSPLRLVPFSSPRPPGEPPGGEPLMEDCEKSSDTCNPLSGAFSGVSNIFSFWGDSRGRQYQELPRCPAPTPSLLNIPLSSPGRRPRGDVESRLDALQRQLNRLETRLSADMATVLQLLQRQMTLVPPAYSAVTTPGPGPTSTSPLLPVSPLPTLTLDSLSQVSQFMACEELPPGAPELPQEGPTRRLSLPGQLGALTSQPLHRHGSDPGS

The assay has as its target human ether-à-go-go-related gene (hERG) potassium channel (human, UniProt Q12809). Kind of assay: primary screen, population patch clamp on CHO cells stably expressing hERG.
As to `O=C(Oc1cccc(-n2cnnn2)c1)c1ccco1`, the “hERG current change (%, negative = inhibition) at 1uM” value was 7.81%. Turning to `Clc1nc2ccccc2cc1-c1nnn(-c2ccccc2Br)n1`, the “hERG current change (%, negative = inhibition) at 1uM” value came out at 0.846%. As to `N=c1c(S(=O)(=O)c2ccccc2)cc2c(=O)n3ccccc3nc2n1CCCN1CCOCC1`, the “hERG current change (%, negative = inhibition) at 1uM” value is -42.5%. Consider `COc1cc(/C=C2\SC(N)=NC2=O)cc(Br)c1O`, for which the “hERG current change (%, negative = inhibition) at 1uM” value was -2.35%.

Consider `C=CCn1c2[n+](c3ccccc3c1=O)CCCCC2.[I-]`, for which the “hERG current change (%, negative = inhibition) at 1uM” value is listed as -7.36%.

On to `COc1ccc(-c2c(C#N)c(SCc3c(C)noc3C)nc3c2C(=O)CC(C)(C)C3)cc1`, for which the “hERG current change (%, negative = inhibition) at 1uM” value is listed as 7.35%. To `Nc1nc(-c2ccc(Oc3ccccc3)cc2)c(CC(=O)O)s1` belongs 1.25%. In the case of `Cc1ccc(C)c(N2CCN(C(=O)c3ccc(CS(=O)(=O)c4ccccc4C)o3)CC2)c1` it was -11.8%; in that of `Cc1nc2c(sc(=S)n2Cc2ccco2)c(=O)n1CC(=O)Nc1cc(F)ccc1F`, 9.47%; in that of `CCc1nc(Nc2ccncc2)c2oc3ccccc3c2n1.Cl`, -9.07%. `Cc1cc(C)nc(NC(=O)Cc2cccs2)n1`: the “hERG current change (%, negative = inhibition) at 1uM” value was determined as 0.635%. Turning to `CC1CCN(CCCCOc2ccc(Br)cc2)CC1`, the “hERG current change (%, negative = inhibition) at 1uM” value was -30.4%.

For `CCOC(=O)c1cnc2cc(C)nn2c1C`, the “hERG current change (%, negative = inhibition) at 1uM” value was 4.13%. For `Cc1ccc(C(=O)Nc2cc3c(cc2N2CCCCC2)n(C)c(=O)n3C)cc1`, the “hERG current change (%, negative = inhibition) at 1uM” value was determined as 17.2%. Take `COC(=O)c1cc(Br)c(=O)n(-c2ccc(F)cc2)c1`: the “hERG current change (%, negative = inhibition) at 1uM” value is given as -70.1%.

Consider `O=C(CSc1nncn1-c1ccccc1)c1c[nH]c2ccccc12`, for which the “hERG current change (%, negative = inhibition) at 1uM” value is 17.1%. In the case of `COc1ccccc1C(=O)Nc1cc(C)ccc1NC(=O)c1ccco1` it was 0.153%; in that of `CC(C)NC(=O)c1ccc(N2CC3CC(C2)c2cccc(=O)n2C3)c([N+](=O)[O-])c1` (centres unmarked), 4.18%.

Regarding `O=C(c1sc2cc(F)ccc2c1Cl)N1CCN(c2cccc(Cl)c2)CC1`, the “hERG current change (%, negative = inhibition) at 1uM” value stood at 0.771%. In the case of `Cc1cc(C)n2c(SCC(=O)NCc3ccco3)nnc2n1`, the “hERG current change (%, negative = inhibition) at 1uM” value was 16%.

`O=C(NNC(=O)C12CC3CC(CC(C3)C1)C2)c1csc(N2CCOCC2)n1`: the “hERG current change (%, negative = inhibition) at 1uM” value is 7.88%. As for `CC(C)NC(=O)Nc1ccc(Br)cc1Cl`, the “hERG current change (%, negative = inhibition) at 1uM” value was 19%. As for `Cc1ccc(OCC(=O)n2nc(C)cc2C)c(Br)c1`, the “hERG current change (%, negative = inhibition) at 1uM” value is on record as 4.1%. `CC(C)(C)c1ccc(C(=O)N2CCC(C(=O)NCCC3=CCCCC3)CC2)cc1`: the “hERG current change (%, negative = inhibition) at 1uM” value is given as 6.86%. With `N#Cc1ccc(-c2cccnc2)nc1SCC(=O)c1ccccc1`, the “hERG current change (%, negative = inhibition) at 1uM” value was 6.32%. For `CCC/S(C)=N/S(=O)(=O)c1ccc(C)cc1` (centres unmarked), the “hERG current change (%, negative = inhibition) at 1uM” value was -3.88%.

`Cc1ccccc1NC(=O)CN1CCN(C(=O)c2ccco2)CC1`: the “hERG current change (%, negative = inhibition) at 1uM” value is reported as 5.5%. For `CN(C)S(=O)(=O)c1ccc(C(=O)OCCN=C2NS(=O)(=O)c3ccccc32)cc1`, the “hERG current change (%, negative = inhibition) at 1uM” value is given as 10%. For the compound `CC1(C)CC(=O)C=C(NCCCN2CCCC2=O)C1`, the “hERG current change (%, negative = inhibition) at 1uM” value was -0.322%. To `COc1ccccc1-c1nnc(SCC(=O)OC(C)C)o1` belongs 7.42%.

For `NP(=O)(Oc1ccccc1Cl)Oc1ccccc1Cl`, the “hERG current change (%, negative = inhibition) at 1uM” value is reported as 10.4%. In the case of `COc1ccc(C(=O)Nc2cccc(NC(=O)c3cccs3)c2)cc1OC`, the “hERG current change (%, negative = inhibition) at 1uM” value stood at 11.4%. In the case of `Cc1cc(C)c(-n2c(SCc3nc4ccccc4s3)n[nH]c2=O)c(C)c1` it was 5.05%. On to `Cc1cc(C)cc(NC(=O)COc2ccc3c(C)c(Cc4ccccc4)c(=O)oc3c2)c1`, for which the “hERG current change (%, negative = inhibition) at 1uM” value was 5.12%. Regarding `O=C(COC(=O)CCc1ccc(S(=O)(=O)N2CCCCC2)cc1)Nc1ccc2c(c1)OCO2`, the “hERG current change (%, negative = inhibition) at 1uM” value was 10%. Regarding `COc1ccc(NC(=O)CSc2nnc(NC(=O)C3CCC3)s2)cc1`, the “hERG current change (%, negative = inhibition) at 1uM” value is given as 11.8%. With `Cc1cc(C(=O)Nc2ccc(S(=O)(=O)N3CCCC3)cc2)cs1`, the “hERG current change (%, negative = inhibition) at 1uM” value was -5.21%. Turning to `CN(C)C(=O)CNc1n[nH]c(=S)[nH]c1=O`, the “hERG current change (%, negative = inhibition) at 1uM” value was 10.7%.

Turning to `COc1ccc(-c2nnc(SCC(=O)Nc3cccc(Cl)c3)o2)cc1`, the “hERG current change (%, negative = inhibition) at 1uM” value is listed as -21.1%.

In the case of `Cc1cc(C)cc(NC(=O)c2ccccc2CC[N+](=O)[O-])c1`, the “hERG current change (%, negative = inhibition) at 1uM” value came out at 7.79%. In the case of `CCCC(=O)N(CCN(Cc1ccccc1)C(=O)CCC)Cc1ccccc1` it was -12.5%. Take `COc1ccc([C@H]2/C=C\CN(C(=O)[C@H](Cc3ccccc3)NC(=O)OCC3c4ccccc4-c4ccccc43)CC(=O)N2Cc2ccc(F)cc2)cc1`: the “hERG current change (%, negative = inhibition) at 1uM” value turned out to be 7.66%.

For the compound `Cn1c(SC2C(=O)CC(C)(C)CC2=O)nnc1-c1ccco1`, the “hERG current change (%, negative = inhibition) at 1uM” value is 7.69%. To `CN(CC(=O)Nc1ccc(F)cc1)C(=O)c1cccc(S(=O)(=O)N2CCN(c3ccc(F)cc3)CC2)c1` belongs 7.64%; to `COC(=O)c1cc2c(ccn2-c2ccc(F)cc2)n1CC(C)C`, 17.4%; to `COc1ccc(S(=O)(=O)N2CCC(C(=O)NCCC(=O)NCc3cccc(OC)c3)CC2)cc1`, 14.2%. `O=P(O)(CCc1ccccn1)CN1CCCCC1`: the “hERG current change (%, negative = inhibition) at 1uM” value turned out to be 0.435%. `CC1(C)OC(C(=O)NC2CCCCC2)C(C(=O)NC2CCCCC2)O1` (centres unmarked): the “hERG current change (%, negative = inhibition) at 1uM” value is recorded as 15.4%. To `Cc1ccc(-n2nnnc2SCC(=O)N2CCc3ccccc3C2)cc1` belongs 0.769%. Consider `C/C(N)=C(/C#N)C(=O)CSc1nc2cc(Cl)ccc2c(=O)n1Cc1ccco1`, for which the “hERG current change (%, negative = inhibition) at 1uM” value amounted to 9.63%. With `COc1ccccc1C1/C(=C(/O)c2ccc(C)cc2)C(=O)C(=O)N1CCN1CCOCC1` (centres unmarked), the “hERG current change (%, negative = inhibition) at 1uM” value worked out at 1.1%. For the compound `Cc1ccc(S(=O)(=O)NC(CC(=O)NCC2CCCO2)c2ccccc2)cc1` (centres unmarked), the “hERG current change (%, negative = inhibition) at 1uM” value is reported as 19.1%.

As to `CC1CCN(c2ccc3nnc(CCC(=O)N4CCN(c5ccc(F)cc5)CC4)n3n2)CC1`, the “hERG current change (%, negative = inhibition) at 1uM” value was -22.9%. For `CC(=O)Nc1ccccc1OC(=O)N1CCOCC1`, the “hERG current change (%, negative = inhibition) at 1uM” value was 15.8%. On to `COc1ccccc1NS(=O)(=O)c1ccc2oc(SCC(C)=O)nc2c1`, for which the “hERG current change (%, negative = inhibition) at 1uM” value turned out to be 14.4%. In the case of `COc1ccc(OCc2nnc(SC(C)C(=O)Nc3nccs3)n2-c2ccccc2)cc1` (centres unmarked) it was 0.543%. With `c1ccc(-n2nnnc2NC2CCCCCC2)cc1`, the “hERG current change (%, negative = inhibition) at 1uM” value is 12.5%.

On to `CC(C)(C)c1ccc(S(=O)(=O)N2CCC(c3nc4ccc(Cl)cc4[nH]3)CC2)cc1`, for which the “hERG current change (%, negative = inhibition) at 1uM” value is reported as 7.6%. In the case of `COCCn1c(C)cc(C(=O)COC(=O)C23CC4CC(CC(O)(C4)C2)C3)c1C`, the “hERG current change (%, negative = inhibition) at 1uM” value is 7.62%. To `CCN(CC)c1ccc(/C=N/NC(=O)c2cccc(S(=O)(=O)N3CCOCC3)c2)c(O)c1` belongs -2.6%. Turning to `COc1cccc(CNC(=O)CN(c2ccc(C(C)C)cc2)S(=O)(=O)c2c(C)noc2C)c1`, the “hERG current change (%, negative = inhibition) at 1uM” value is reported as 6.88%. To `N=C1SCC(=O)N1c1ccc(Cl)cc1` belongs 12.7%; to `O=C(O)/C=C/C(=O)c1ccc2c(c1)NC(=O)CO2`, 13.2%; to `Cc1cccc(NC(=O)CCc2nnc3ccc(N4CCC(C)CC4)nn23)n1`, 16.9%. In the case of `Cc1ccc(/C=C2/C(=O)ON=C2c2ccccc2)o1`, the “hERG current change (%, negative = inhibition) at 1uM” value was 6.9%. As for `NNC(=O)c1cccc(COc2ccc(Br)cc2)c1`, the “hERG current change (%, negative = inhibition) at 1uM” value is listed as -11%. Turning to `CCC(C)c1ccc(NC(=O)CC(C)=O)cc1` (centres unmarked), the “hERG current change (%, negative = inhibition) at 1uM” value is listed as 4.37%.

Turning to `CCCc1nc2c(s1)CCc1onc(-c3ccc(OC)cc3)c1-2`, the “hERG current change (%, negative = inhibition) at 1uM” value came out at 4.97%. For `Cc1cc(C)c(S(=O)(=O)N2CCN(C(=O)c3cccs3)CC2)c(C)c1`, the “hERG current change (%, negative = inhibition) at 1uM” value is reported as 5.5%. In the case of `O=C(Cc1cccs1)NNC(=S)NCc1ccco1` it was 8.62%.

As to `CCc1ccc(NS(=O)(=O)c2ccc3c(c2)oc(=O)n3C)cc1`, the “hERG current change (%, negative = inhibition) at 1uM” value is listed as 11.7%. For the compound `CCOc1ccccc1/C=N/n1c(C2CCCCC2)n[nH]c1=S`, the “hERG current change (%, negative = inhibition) at 1uM” value came to 15.1%.

On to `COc1cccc(CN2CCN(Cc3ccc4c(NC(C)=O)cccc4n3)CC2CCO)c1` (centres unmarked), for which the “hERG current change (%, negative = inhibition) at 1uM” value is given as 6.22%. To `c1ccc2sc(N3CCNCC3)nc2c1` belongs 12.3%. In the case of `COc1ccc(/C=C2/Sc3ccc(C(=O)N4CCOCC4)cc3NC2=O)cc1OC` it was 25.5%; in that of `COc1ccc(N2C(=O)CC(N3CCN(S(=O)(=O)c4c(C)cc(C)cc4C)CC3)C2=O)cc1` (centres unmarked), -1.62%.

Turning to `CCOC(=O)Nc1cc(OCC)c(NC(=O)C2CC2)cc1OCC`, the “hERG current change (%, negative = inhibition) at 1uM” value worked out at 9.61%. Consider `Cn1c(=O)c(=O)n(C)c2cc(S(=O)(=O)CCC(=O)Nc3cccc(C(F)(F)F)c3)ccc21`, for which the “hERG current change (%, negative = inhibition) at 1uM” value worked out at 14.6%. For the compound `O=C(NS(=O)(=O)c1ccc2c(c1)OCCO2)c1ccccc1`, the “hERG current change (%, negative = inhibition) at 1uM” value was found to be 21.2%. To `CCCC(=O)Nc1nnc(-c2ccccc2)o1` belongs 11.7%.

As to `O=S(=O)(Cc1ccc(Cl)cc1)NCc1cccnc1`, the “hERG current change (%, negative = inhibition) at 1uM” value is recorded as 9.04%. To `Cl.O=C(OC[C@@H]1CCCN2CCCC[C@H]12)c1cc2ccccc2oc1=O` belongs -14.5%; to `CS(=O)(=O)c1ccc(Cl)c(NC(=O)c2cccc(Br)c2)c1`, 2.54%. Consider `COc1ccc(Nc2ccc(C(N)=O)cc2[N+](=O)[O-])cc1`, for which the “hERG current change (%, negative = inhibition) at 1uM” value was 13.4%.

In the case of `Cc1cc(F)ccc1S(=O)(=O)Nc1ccc(O)c(Sc2ncn[nH]2)c1`, the “hERG current change (%, negative = inhibition) at 1uM” value is recorded as 20.6%. `Fc1ccc(CNC(=S)Nc2ccc(OC(F)F)cc2)cc1`: the “hERG current change (%, negative = inhibition) at 1uM” value is -2.84%. In the case of `CN(C)/C=C1\N=C(c2ccccc2)OC1=O` it was 11.2%; in that of `COc1ccc(C(=O)Nc2c(C)cc(C)cc2C)cc1OC`, 20.7%. As for `N#Cc1c(N)n(-c2cccc(O)c2)c2nc3ccccc3nc12`, the “hERG current change (%, negative = inhibition) at 1uM” value is given as -0.12%.
